# Measurements from the supplement of paper PMC8728848.
# The list shows a part of the results.
# Columns and labels:
# Assay in all cases: glycan array binding signal (z-score within array); higher = stronger binding
# Settings in all cases: glycan notation: IUPAC condensed, linker removed
# [1] = biological target: Fuc(a1-2)Gal
# Procedure, shortened: (§1)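 Negative Z-scores can be read as non-binding. The Z-score is calculated within each array and then averaged across arrays of one protein sequence at different concentrations or buffers and across linkers. Arrays, 3228 in all, were curated from the Consortium for Functional Glycomics database and kept only where the protein sequence was available.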
# [2] = biological target: Fuc(a1-2)Gal(b1-3)GalNAc
# Procedure, shortened: as §1
# [3] = biological target: Fuc(a1-2)Gal(b1-3)GalNAc(a1-3)[Fuc(a1-2)]Gal(b1-4)Glc
# Procedure, shortened: as §1
# [4] = biological target: Fuc(a1-2)Gal(b1-3)GalNAc(a1-3)[Fuc(a1-2)]Gal(b1-4)GlcNAc
# Procedure, shortened: as §1
# [5] = biological target: Fuc(a1-2)Gal(b1-3)GalNAc(b1-3)Gal
# Procedure, shortened: as §1
# [6] = biological target: Fuc(a1-2)Gal(b1-3)GalNAc(b1-3)Gal(a1-4)Gal(b1-4)Glc
# Procedure, shortened: as §1
# [7] = biological target: Fuc(a1-2)Gal(b1-3)GalNAc(b1-4)[Neu5Ac(a2-3)]Gal(b1-4)Glc
# Procedure, shortened: as §1
# [8] = biological target: Fuc(a1-2)Gal(b1-3)GlcNAc
# Procedure, shortened: as §1
# [9] = biological target: Fuc(a1-2)Gal(b1-3)GlcNAc(b1-2)Man(a1-3)[Fuc(a1-2)Gal(b1-3)GlcNAc(b1-2)Man(a1-6)]Man(b1-4)GlcNAc(b1-4)GlcNAc
# Procedure, shortened: as §1
# [10] = biological target: Fuc(a1-2)Gal(b1-3)GlcNAc(b1-2)Man(a1-3)[Fuc(a1-2)Gal(b1-3)GlcNAc(b1-2)Man(a1-6)]Man(b1-4)GlcNAc(b1-4)[Fuc(a1-6)]GlcNAc
# Procedure, shortened: as §1
# [11] = biological target: Fuc(a1-2)Gal(b1-3)GlcNAc(b1-3)Gal(b1-4)Glc
# Procedure, shortened: as §1
# [12] = biological target: Fuc(a1-2)Gal(b1-3)GlcNAc(b1-3)GalNAc
# Procedure, shortened: as §1
# [13] = biological target: Fuc(a1-2)Gal(b1-3)GlcNAc(b1-3)[Fuc(a1-2)Gal(b1-3)GlcNAc(b1-6)]GalNAc
# Procedure, shortened: as §1
# [14] = biological target: Fuc(a1-2)Gal(b1-3)GlcNAc(b1-3)[Gal(b1-4)GlcNAc(b1-6)]Gal(b1-4)Glc
# Procedure, shortened: as §1
# [15] = biological target: Fuc(a1-2)Gal(b1-3)GlcNAc(b1-3)[Neu5Ac(a2-6)Gal(b1-4)GlcNAc(b1-6)]Gal(b1-4)Glc
# Procedure, shortened: as §1
# [16] = biological target: Fuc(a1-2)Gal(b1-3)GlcNAc6S
# Procedure, shortened: as §1
# [17] = biological target: Fuc(a1-2)Gal(b1-3)[Fuc(a1-4)]GlcNAc
# Procedure, shortened: as §1
# [18] = biological target: Fuc(a1-2)Gal(b1-3)[Fuc(a1-4)]GlcNAc(b1-2)Man(a1-3)[Fuc(a1-2)Gal(b1-3)[Fuc(a1-4)]GlcNAc(b1-2)Man(a1-3)]Man(b1-4)GlcNAc(b1-4)GlcNAc
# Procedure, shortened: as §1
# [19] = biological target: Fuc(a1-2)Gal(b1-3)[Fuc(a1-4)]GlcNAc(b1-2)Man(a1-3)[Fuc(a1-2)Gal(b1-3)[Fuc(a1-4)]GlcNAc(b1-2)Man(a1-6)]Man(b1-4)GlcNAc(b1-4)[Fuc(a1-6)]GlcNAc(b1-4)[Fuc(a1-6)]GlcNAc
# Procedure, shortened: as §1
# [20] = biological target: Fuc(a1-2)Gal(b1-3)[Fuc(a1-4)]GlcNAc(b1-3)[Fuc(a1-3)[Gal(b1-4)]GlcNAc(b1-6)]Gal(b1-4)Glc
# Procedure, shortened: as §1
# [21] = biological target: Fuc(a1-2)Gal(b1-3)[Fuc(a1-4)]GlcNAc(b1-3)[Gal(b1-4)GlcNAc(b1-6)]Gal(b1-4)Glc
# Procedure, shortened: as §1
# [22] = biological target: Fuc(a1-2)Gal(b1-4)Glc
# Procedure, shortened: as §1
# [23] = biological target: Fuc(a1-2)Gal(b1-4)Glc6S
# Procedure, shortened: as §1
# [24] = biological target: Fuc(a1-2)Gal(b1-4)GlcNAc
# Procedure, shortened: as §1
# [25] = biological target: Fuc(a1-2)Gal(b1-4)GlcNAc(b1-2)Man
# Procedure, shortened: as §1
# [26] = biological target: Fuc(a1-2)Gal(b1-4)GlcNAc(b1-2)Man(a1-3)[Fuc(a1-2)Gal(b1-4)GlcNAc(b1-2)Man(a1-6)]Man(b1-4)GlcNAc(b1-4)GlcNAc
# Procedure, shortened: as §1
# [27] = biological target: Fuc(a1-2)Gal(b1-4)GlcNAc(b1-2)Man(a1-3)[Fuc(a1-2)Gal(b1-4)GlcNAc(b1-2)Man(a1-6)]Man(b1-4)GlcNAc(b1-4)[Fuc(a1-6)]GlcNAc
# Procedure, shortened: as §1
# [28] = biological target: Fuc(a1-2)Gal(b1-4)GlcNAc(b1-2)[Fuc(a1-2)Gal(b1-4)GlcNAc(b1-4)]Man(a1-3)[Fuc(a1-2)Gal(b1-4)GlcNAc(b1-2)Man(a1-6)]Man(b1-4)GlcNAc(b1-4)GlcNAc
# Procedure, shortened: as §1
# [29] = biological target: Fuc(a1-2)Gal(b1-4)GlcNAc(b1-3)Gal(b1-4)GlcNAc
# Procedure, shortened: as §1
# [30] = biological target: Fuc(a1-2)Gal(b1-4)GlcNAc(b1-3)Gal(b1-4)GlcNAc(b1-2)Man(a1-3)[Fuc(a1-2)Gal(b1-4)GlcNAc(b1-3)Gal(b1-4)GlcNAc(b1-2)Man(a1-6)]Man(b1-4)GlcNAc(b1-4)GlcNAc
# Procedure, shortened: as §1
binder,measurement,setting,value
FliD (Clostridium difficile) (protein) MSSISPVRVTGLSGNFDMEGIIEASMIRDKEKVNKAKQDQQIVKWKQEIYRDIIKESKNLYDKYLNGDSPNSITNKKAYSATRITSSDESIIVAKGSAGAEKINYQFAVSQMAEPAKVTIKLNSSDPIVQQFPPNASGASSLNIGGVNIPISEQDTTSTIVSKINSLCADNDIRASYSEMTGELIISRKQTGSSSDIDLKVIGNDSLAGQIASDNGITFTTDASGTKSAVVYGKNLEADVTDDQGRVTHISKEQNSFKIDNIDYNVNSKGSAKLVSVTDTEEATKNMKAFVDDYNALMDKVYGLVTTKKSKDYPPLTDEQKDDMTTEEIEKWEKKAKEGILRNDDELRAFVEDIQSMFFGDADTIIALRKLGISEHENYNKKGQISFNADTFSKALIDDSDKVYKALAGYSSNYDDKGMFEKLKKIVFEYSGSSASKLTKKAGMENSSSASQNVYSKQIAEQERNISRLVEKMNDKEKRLYAKYSALESLLNKYSSQMNYFSQAQGN,glycan array binding signal (z-score),[1],0.05
same,glycan array binding signal (z-score),[2],-0.184
same,glycan array binding signal (z-score),[3],-0.104
same,glycan array binding signal (z-score),[4],-0.194
same,glycan array binding signal (z-score),[5],-0.067
same,glycan array binding signal (z-score),[6],-0.241
same,glycan array binding signal (z-score),[7],-0.181
same,glycan array binding signal (z-score),[8],0.103
same,glycan array binding signal (z-score),[9],0.334
same,glycan array binding signal (z-score),[10],0.028
same,glycan array binding signal (z-score),[11],0.071
same,glycan array binding signal (z-score),[12],0.115
same,glycan array binding signal (z-score),[13],0.089
same,glycan array binding signal (z-score),[14],0.059
same,glycan array binding signal (z-score),[15],-0.046
same,glycan array binding signal (z-score),[16],0.108
same,glycan array binding signal (z-score),[17],-0.195
same,glycan array binding signal (z-score),[18],-0.113
same,glycan array binding signal (z-score),[19],-0.156
same,glycan array binding signal (z-score),[20],-0.26
same,glycan array binding signal (z-score),[21],-0.265
same,glycan array binding signal (z-score),[22],-0.046
same,glycan array binding signal (z-score),[23],-0.185
same,glycan array binding signal (z-score),[24],-0.075
same,glycan array binding signal (z-score),[25],-0.018
same,glycan array binding signal (z-score),[26],0.171
same,glycan array binding signal (z-score),[27],-0.151
same,glycan array binding signal (z-score),[28],-0.101
same,glycan array binding signal (z-score),[29],-0.095
same,glycan array binding signal (z-score),[30],0.047
